Experimental data as given in the supplement of paper PMC4604168 (melanoma cell lines).
The other results are listed elsewhere or left out. Most values come without repeats; read them as rough.

Assays:
Assay in all cases: cell count relative to DMSO control; melanoma cells; higher = more viable cells
Conditions in all cases: library dose: low library concentration; 72 h
[1] = system: WM115
[2] = system: WM1716
[3] = system: WM1745
[4] = system: WM3526
[5] = system: WM3619
[6] = system: WM451Lu
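Further: cell number obtained by counting DAPI-stained nuclei in high-throughput microscope images with image analysis software, screen run in 1,536-well plates.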

SMILES	cell count [1] [%]	cell count [2] [%]	cell count [3] [%]	cell count [4] [%]	cell count [5] [%]	cell count [6] [%]
C[C@@H](Oc1cc(-c2cnn(C3CCNCC3)c2)cnc1N)c1c(Cl)ccc(F)c1Cl [Crizotinib] + Nc1ncn([C@H]2C[C@H](O)[C@@H](CO)O2)c(=O)n1 [decitabine] (first compound 0.2 µM, partner dose 0.1 µM)	91.2	94.6	103	124	110	99.5
CS(=O)(=O)CCNCc1ccc(-c2ccc3ncnc(Nc4ccc(OCc5cccc(F)c5)c(Cl)c4)c3c2)o1 [lapatinib] + O=C(O)c1ccc(-c2c[nH]c3ncc(-c4ccccc4)cc23)cc1C1CCCC1 [GSK650394] (first compound 0.8 µM, partner dose 0.16 µM)	114	108	111	92.1	121	86.6
CNC(=O)c1cc(Oc2ccc(NC(=O)Nc3ccc(Cl)c(C(F)(F)F)c3)cc2)ccn1 [sorafenib] + Nc1ncn([C@H]2C[C@H](O)[C@@H](CO)O2)c(=O)n1 [decitabine] (first compound 0.4 µM, partner dose 0.1 µM)	93.3	76.6	88.4	94.9	82.3	104
C[C@@H](Oc1cc(-c2cnn(C3CCNCC3)c2)cnc1N)c1c(Cl)ccc(F)c1Cl [Crizotinib] + N#Cc1c(O)c2c(-c3ccc(-c4ccccc4O)cc3)csc2[nH]c1=O [A769662] (first compound 0.2 µM, partner dose 2 µM)	100	103	96.8	89.9	113	114
C[C@@H](Oc1cc(-c2cnn(C3CCNCC3)c2)cnc1N)c1c(Cl)ccc(F)c1Cl [Crizotinib] + O=C(CCCCCCC(=O)Nc1ccccc1)NO [vorinostat] (first compound 0.2 µM, partner dose 0.08 µM)	106	117	93.6	90.5	129	80.8
C=CCNC1=C2C[C@@H](C)C[C@H](OC)[C@H](O)[C@@H](C)/C=C(\C)[C@H](OC(N)=O)[C@@H](OC)/C=C\C=C(/C)C(=O)NC(=CC1=O)C2=O [Tanespimycin] + CCN(CC)CCCCNc1ncc2cc(-c3cc(OC)cc(OC)c3)c(NC(=O)NC(C)(C)C)nc2n1 [PD173074] (first compound 0.002 µM, partner dose 0.1 µM)	92.4	86.9	99.7	109	95.2	106
CS(=O)(=O)CCNCc1ccc(-c2ccc3ncnc(Nc4ccc(OCc5cccc(F)c5)c(Cl)c4)c3c2)o1 [lapatinib] + C=C(c1ccc(C(=O)O)cc1)c1cc2c(cc1C)C(C)(C)CCC2(C)C [Bexarotene] (first compound 0.8 µM, partner dose 2 µM)	97.9	93.1	105	95.6	100	92.6
C[C@@H](Oc1cc(-c2cnn(C3CCNCC3)c2)cnc1N)c1c(Cl)ccc(F)c1Cl [Crizotinib] + Cc1cc(N2CCOCC2)cc2[nH]c(-c3c(NC[C@@H](O)c4cccc(Cl)c4)cc[nH]c3=O)nc12 [BMS536924] (first compound 0.2 µM, partner dose 0.2 µM)	101	105	61.9	90.1	128	93.5
CN1CCN(c2ccc3nc(-c4c(N)c5c(F)cccc5[nH]c4=O)[nH]c3c2)CC1 [Dovitinib] + OCc1c[nH]c2ccccc12 [Indole-3-carbinol] (first compound 0.1 µM, partner dose 0.8 µM)	79.8	92.7	83.5	77.8	113	95
CS(=O)(=O)CCNCc1ccc(-c2ccc3ncnc(Nc4ccc(OCc5cccc(F)c5)c(Cl)c4)c3c2)o1 [lapatinib] + CC(C)CCN1c2nc(Nc3cc(F)c(O)c(F)c3)ncc2N(C)C(=O)C1C [BID1870] (first compound 0.8 µM, partner dose 0.2 µM)	85.9	117	90.3	82	84.7	100
CN1CCN(c2ccc3nc(-c4c(N)c5c(F)cccc5[nH]c4=O)[nH]c3c2)CC1 [Dovitinib] + Cn1c(Nc2ccc(C(F)(F)F)cc2)nc2cc(Oc3ccnc(-c4ncc(C(F)(F)F)[nH]4)c3)ccc21 [CHIR265] (first compound 0.1 µM, partner dose 0.08 µM)	61.6	97.5	60.2	72.2	97.3	81.3
CS(=O)(=O)CCNCc1ccc(-c2ccc3ncnc(Nc4ccc(OCc5cccc(F)c5)c(Cl)c4)c3c2)o1 [lapatinib] + COc1cc(N2CCC(N3CCN(C)CC3)CC2)ccc1Nc1ncc(Cl)c(Nc2ccccc2S(=O)(=O)C(C)C)n1 [NVP-TAE684] (first compound 0.8 µM, partner dose 0.08 µM)	82	86.3	78.3	72.6	92.8	98.6
C=CCNC1=C2C[C@@H](C)C[C@H](OC)[C@H](O)[C@@H](C)/C=C(\C)[C@H](OC(N)=O)[C@@H](OC)/C=C\C=C(/C)C(=O)NC(=CC1=O)C2=O [Tanespimycin] + Cc1cc(N2CCOCC2)cc2[nH]c(-c3c(NC[C@@H](O)c4cccc(Cl)c4)cc[nH]c3=O)nc12 [BMS536924] (first compound 0.002 µM, partner dose 0.2 µM)	97.2	108	82.8	77.3	83	77.1
CNC(=O)c1cc(Oc2ccc(NC(=O)Nc3ccc(Cl)c(C(F)(F)F)c3)cc2)ccn1 [sorafenib] + Cc1ccc(NC(=O)c2cccc(N(C)C)c2)cc1NC(=O)c1ccc(O)cc1 [ZM336372] (first compound 0.4 µM, partner dose 2 µM)	106	96.7	80.8	76.3	106	111
CN1CCN(c2ccc3nc(-c4c(N)c5c(F)cccc5[nH]c4=O)[nH]c3c2)CC1 [Dovitinib] + CCc1ccc(CCOc2ccc(CC3SC(=O)NC3=O)cc2)nc1 [pioglitazone] (first compound 0.1 µM, partner dose 2 µM)	108	91.1	80.5	89.2	133	95.9
CS(=O)(=O)CCNCc1ccc(-c2ccc3ncnc(Nc4ccc(OCc5cccc(F)c5)c(Cl)c4)c3c2)o1 [lapatinib] + COc1cc2c(Oc3ccc4[nH]c(C)cc4c3F)ncnc2cc1OCCCN1CCCC1 [cediranib] (first compound 0.8 µM, partner dose 0.4 µM)	99	97	92.9	83.7	115	76.4
CS(=O)(=O)CCNCc1ccc(-c2ccc3ncnc(Nc4ccc(OCc5cccc(F)c5)c(Cl)c4)c3c2)o1 [lapatinib] + Cn1cc(/C=C2\C(=O)Nc3cccnc32)c2ccccc21 [GW441756] (first compound 0.8 µM, partner dose 0.4 µM)	92.8	101	101	104	124	106
C=CCNC1=C2C[C@@H](C)C[C@H](OC)[C@H](O)[C@@H](C)/C=C(\C)[C@H](OC(N)=O)[C@@H](OC)/C=C\C=C(/C)C(=O)NC(=CC1=O)C2=O [Tanespimycin] + N#Cc1c(O)c2c(-c3ccc(-c4ccccc4O)cc3)csc2[nH]c1=O [A769662] (first compound 0.002 µM, partner dose 2 µM)	90.7	105	81.8	91.7	83.6	93.5
CN1CCN(c2ccc3nc(-c4c(N)c5c(F)cccc5[nH]c4=O)[nH]c3c2)CC1 [Dovitinib] + OCCn1cc(-c2cnc3nnn(Cc4ccc5ncccc5c4)c3n2)cn1 [PF04217903] (first compound 0.1 µM, partner dose 1 µM)	91.4	92	111	85.8	108	96.4
C[C@@H](Oc1cc(-c2cnn(C3CCNCC3)c2)cnc1N)c1c(Cl)ccc(F)c1Cl [Crizotinib] + Oc1cc(-c2nc(-c3ccccc3)[nH]c2-c2ccncc2)ccc1Cl [L779450] (first compound 0.2 µM, partner dose 0.2 µM)	85.1	101	98.1	92.2	96.7	95.8
C[C@@H](Oc1cc(-c2cnn(C3CCNCC3)c2)cnc1N)c1c(Cl)ccc(F)c1Cl [Crizotinib] + Nc1nc(F)nc2c1ncn2[C@@H]1O[C@H](CO)[C@@H](O)[C@@H]1O [fludarabine] (first compound 0.2 µM, partner dose 0.2 µM)	94.2	88.6	116	28.8	131	57.4
C[C@@H](Oc1cc(-c2cnn(C3CCNCC3)c2)cnc1N)c1c(Cl)ccc(F)c1Cl [Crizotinib] + COc1ccc2c(c1)CCC1C2CCC2(C)C(NCCCCCCN3C(=O)C=CC3=O)CCC12 [U73122] (first compound 0.2 µM, partner dose 0.4 µM)	95.2	90	95.5	100	89.8	96.1
C[C@@H](Oc1cc(-c2cnn(C3CCNCC3)c2)cnc1N)c1c(Cl)ccc(F)c1Cl [Crizotinib] + COc1cc(Nc2ncc(F)c(Nc3ccc4c(n3)NC(=O)C(C)(C)O4)n2)cc(OC)c1OC [Tamatinib] (first compound 0.2 µM, partner dose 0.4 µM)	86.5	87	62.3	82.6	106	93.4
CS(=O)(=O)CCNCc1ccc(-c2ccc3ncnc(Nc4ccc(OCc5cccc(F)c5)c(Cl)c4)c3c2)o1 [lapatinib] + Nc1ncn([C@H]2C[C@H](O)[C@@H](CO)O2)c(=O)n1 [decitabine] (first compound 0.8 µM, partner dose 0.1 µM)	99.2	91.9	106	106	83.5	119
